In publication PMC12136788:
The list shows a part of the results.

T1: UNK ZnF1-6 (called full-length) (human, UniProt Q9C0B0 30-357)
T1 sequence: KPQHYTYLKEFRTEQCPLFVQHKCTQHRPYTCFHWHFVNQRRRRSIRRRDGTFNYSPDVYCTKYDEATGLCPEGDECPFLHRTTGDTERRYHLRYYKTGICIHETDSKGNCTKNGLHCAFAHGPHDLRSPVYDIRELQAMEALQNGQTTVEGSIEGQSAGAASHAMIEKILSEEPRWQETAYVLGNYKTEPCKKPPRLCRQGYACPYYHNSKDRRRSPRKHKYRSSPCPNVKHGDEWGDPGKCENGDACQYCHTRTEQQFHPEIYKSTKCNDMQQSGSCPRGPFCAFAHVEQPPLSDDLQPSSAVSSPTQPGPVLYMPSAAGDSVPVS

B1: chr2:32414998:32415099:+|CDS|ENSG00000115760|unk|total|mutant (ssRNA)
RNA: GGGAGUUCUACAGUCCGACGAUCCCAUGUUUAUCCGCUGGAGGUUUAUUAACAUAUAAAUCUCCUGCUACCUCACCCAUCCGCCGUAAUUCUCACAGGUCACUGGAUGGUUUAAGCAGAACUCAGGGUGAAAGUAUAUCAGAACAACAGAGGAUUGAGCAUCA
B2: chr1:67426168:67426278:-|CDS|ENSG00000142864|unk|total|mutant (ssRNA)
RNA: GGGAGUUCUACAGUCCGACGAUCAUAAGACGAGUUGGAAGAAGACCUGAUCAACAACUUCAGGGUGAAGGGAAAAUAAUUGACCGAAGACCAGAAAGGCGACCACCUCGUGAACGAAGAUUCGAAAAGCCACUUGAAGAAAAGCAACAGAGGAUUGAGCAUCA
B3: chr10:95311796:95311897:-|3pUTR|ENSG00000095637|unk|FALSE|unique (ssRNA)
RNA: GGGAGUUCUACAGUCCGACGAUCCAGACAUAGAUUUUUCUGUUCAUUUAUUUUUCUUCAUUGCAGUGGAUUGAUUUGAUAAAUAGAUGUGUUGAAUUACUACAUUUGCUGUACAUAUUAUUUAAUAAACUUUAUUCAGAAUUGCAACAGAGGAUUGAGCAUCA
B4: chr18:722677:722778:-|3pUTR|ENSG00000176105|msi1|FALSE|unique (ssRNA)
RNA: GGGAGUUCUACAGUCCGACGAUCCCGCGCCCAGCCUACAUUCACUUCUAAAGUCUAUGUAAUGGUGGUCAUUUUUUCCCUUUUAGAAUACAUUAAAUGGUUGAUUUGGGGAGGAAAACUUAUUCUGAAUAUUAACGGUGGUGACAACAGAGGAUUGAGCAUCA
B5: chr2:32224452:32224765:-|three_prime_utr|ENSG00000091106|control|control|control (ssRNA)
RNA: GGGAGUUCUACAGUCCGACGAUCUCGUGUGAGCAGUGAUGGAUGGCUUGCCUUCAUGGGUGUAUUUGAGAAUCUUAAGCAAUUAGUGUUUUUUGACUUUAGUACUAAAGAAUUUCUACCUGAUCCAGCAUUAGUCAGAAAACUCAACAGAGGAUUGAGCAUCA
B6: chr12:88493871:88493972:-|3pUTR|ENSG00000049130|msi1|total|mutant (ssRNA)
RNA: GGGAGUUCUACAGUCCGACGAUCAAGUAUCUUGACCAUAAAAAGUCAUUGCUGUUCUUGUUUCUAAUGUAAACCGUGUCCAUCCGUAAAAGUGAAAUUCAGUCUUAAGCCGGGUGAAUUGGAUCACCAUUUACACAAGAGAUGCAACAGAGGAUUGAGCAUCA

The binders below were run against T1, UNK ZnF1-6 (called full-length) (assay: nsRBNS (natural sequence RNA bind-n-seq); RBNS binding buffer (assumed for nsRBNS): 25 mM Tris pH 7.5, 150 mM KCl, 3 mM MgCl2, 0.01% Triton X-100, 500 ug/ml BSA, 20 U/ml SUPERase-In, 4 C; UNK is unkempt and MSI1 is Musashi-1; names of the RNAs are library labels; protein concentration not given here; high values mean tight binding).

Binder | binding signal
B1 | 0.463 enrichment R
B2 | 0.442 enrichment R
B3 | 2.42 enrichment R
B4 | 0.894 enrichment R
B5 | 1.98 enrichment R
B6 | 0.19 enrichment R
